Values of other authors in PMC11006913.
Residue numbers refer to the chain shown, from its start. The list shows a part of the results.

Assays:
Settings in all cases: PBM; conditions not shown; double strand, one strand shown; scale: upbm affinity estimate (log intensity, higher = more binding, comparable within an allelic series)
ARX (Homo sapiens) = ARX (Homo sapiens) (UniProt Q96QS3)
ARX L343Q (Homo sapiens) = ARX L343Q (Homo sapiens) (UniProt Q96QS3)
ARX P353L (Homo sapiens) = ARX P353L (Homo sapiens) (UniProt Q96QS3)
ARX P353R (Homo sapiens) = ARX P353R (Homo sapiens) (UniProt Q96QS3)
ARX R332H (Homo sapiens) = ARX R332H (Homo sapiens) (UniProt Q96QS3)
ARX T333N (Homo sapiens) = ARX T333N (Homo sapiens) (UniProt Q96QS3)
[1] = target: T1, HESX1 E149K (Homo sapiens) (UniProt Q9UBX0)
T1 sequence: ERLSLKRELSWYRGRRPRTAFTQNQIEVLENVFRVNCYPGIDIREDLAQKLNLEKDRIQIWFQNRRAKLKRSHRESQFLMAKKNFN

[2] = target: T2, HESX1 N125S (Homo sapiens) (UniProt Q9UBX0)
T2 sequence: T1 sequence with N31S, K55E

[3] = target: T3, HESX1 R160C (Homo sapiens) (UniProt Q9UBX0)
T3 sequence: T1 sequence with K55E, R66C

ISX (Homo sapiens) = ISX (Homo sapiens) (UniProt Q2M1V0)
ISX R83Q (Homo sapiens) = ISX R83Q (Homo sapiens) (UniProt Q2M1V0)
[4] = target: PROP1 R112Q (Homo sapiens) (UniProt O75360)
[5] = target: PROP1 R99Q (Homo sapiens) (UniProt O75360)
[6] = target: HOXD13 I297V (Homo sapiens) (UniProt P35453)
[7] = target: HOXD13 I322L (Homo sapiens) (UniProt P35453)
[8] = target: HOXD13 N298S (Homo sapiens) (UniProt P35453)
[9] = target: HOXD13 Q325K (Homo sapiens) (UniProt P35453)
[10] = target: HOXD13 Q325R (Homo sapiens) (UniProt P35453)
[11] = target: HOXD13 R306W (Homo sapiens) (UniProt P35453)
[12] = target: HOXD13 S316C (Homo sapiens) (UniProt P35453)

Row | Sequence | binding signal (ARX (Homo sapiens)) | binding signal (ARX L343Q (Homo sapiens)) | binding signal (ARX P353L (Homo sapiens)) | binding signal (ARX P353R (Homo sapiens)) | binding signal (ARX R332H (Homo sapiens)) | binding signal (ARX T333N (Homo sapiens)) | binding signal [1] | binding signal [2] | binding signal [3] | binding signal (ISX (Homo sapiens)) | binding signal (ISX R83Q (Homo sapiens)) | binding signal [4] | binding signal [5] | binding signal [6] | binding signal [7] | binding signal [8] | binding signal [9] | binding signal [10] | binding signal [11] | binding signal [12]
1 | TAATTAGA [8-mer TAATTAGA] | 13.3 | 11 | 13 | 10.8 | 11.1 | 12.4 | 12 | 13.2 | 10.4 | 15.7 | 15.2 | 13 | 12.4 |  |  |  |  |  |  | 
2 | AATTAACG [8-mer AATTAACG] | 12.8 | 10.9 | 12.3 | 10.8 | 11 | 11.9 | 11.4 | 11.1 | 10.3 | 14.7 | 13.6 | 12.7 | 12.2 |  |  |  |  |  |  | 
3 | CAATTATC [8-mer CAATTATC] | 12.8 | 11 | 12.3 | 10.9 | 11.1 | 12 | 11.9 | 12.6 | 10.4 | 15.1 | 13.9 | 12.8 | 12.4 |  |  |  |  |  |  | 
4 | CTAATTAG [8-mer CTAATTAG] | 13.5 | 11.2 | 13.4 | 10.9 | 11.3 | 12.7 | 12.4 | 14 | 10.4 | 15.6 | 15.7 | 13.1 | 12.6 |  |  |  |  |  |  | 
5 | TAATTGGA [8-mer TAATTGGA] | 13 | 11 | 12.7 | 10.8 | 11.1 | 12.2 | 11.9 | 12.9 | 10.3 | 15.5 | 14.9 | 12.9 | 12.5 |  |  |  |  |  |  | 
6 | CCTAATTA [8-mer CCTAATTA] | 13.3 | 10.9 | 13 | 10.8 | 11.1 | 12.4 | 11.9 | 13 | 10.4 | 15.5 | 14.8 | 12.9 | 12.4 |  |  |  |  |  |  | 
7 | AAATTAAT [8-mer AAATTAAT] | 12.8 | 10.8 | 12.2 | 10.7 | 11 | 12 | 11.2 | 11.4 | 10.3 | 14.8 | 13.6 | 12.7 | 12 |  |  |  |  |  |  | 
8 | CAATTATA [8-mer CAATTATA] | 12.7 | 10.9 | 12.3 | 10.9 | 11.1 | 12 | 11.8 | 12.8 | 10.4 | 15 | 13.8 | 12.7 | 12.3 |  |  |  |  |  |  | 
9 | AATTAGCA [8-mer AATTAGCA] | 12.8 | 10.8 | 12.5 | 10.7 | 10.9 | 11.9 | 11.3 | 11.3 | 10.3 | 14.6 | 13.5 | 12.6 | 12.1 |  |  |  |  |  |  | 
10 | CAATTACC [8-mer CAATTACC] | 12.8 | 10.8 | 12.4 | 10.6 | 10.9 | 11.9 | 11.8 | 11.9 | 10.3 | 15.1 | 13.7 | 12.8 | 12.4 |  |  |  |  |  |  | 
11 | CAATTAGA [8-mer CAATTAGA] | 12.9 | 10.9 | 12.5 | 10.7 | 11 | 11.9 | 11.6 | 12 | 10.3 | 15 | 14 | 12.7 | 12.3 |  |  |  |  |  |  | 
12 | CTTAATTA [8-mer CTTAATTA] | 13.3 | 11 | 12.8 | 10.9 | 11.1 | 12.5 | 12 | 13.7 | 10.4 | 15.6 | 15.4 | 12.9 | 12.3 |  |  |  |  |  |  | 
13 | AATTAATT [8-mer AATTAATT] | 13.2 | 10.9 | 12.7 | 10.7 | 11.2 | 12.4 | 11.8 | 12.5 | 10.3 | 15.4 | 15 | 13 | 12.3 |  |  |  |  |  |  | 
14 | ATCAATTA [8-mer ATCAATTA] | 13.2 | 11.1 | 12.8 | 10.9 | 11.3 | 12.3 | 12 | 13.2 | 10.4 | 15.4 | 14.7 | 12.9 | 12.5 |  |  |  |  |  |  | 
15 | CTAATTGA [8-mer CTAATTGA] | 13.2 | 10.8 | 12.9 | 10.6 | 11 | 12.2 | 11.8 | 12.9 | 10.2 | 15.4 | 14.7 | 12.9 | 12.4 |  |  |  |  |  |  | 
16 | CAATTAAC [8-mer CAATTAAC] | 12.9 | 11 | 12.6 | 10.9 | 11.1 | 12.1 | 11.9 | 12.5 | 10.4 | 15.3 | 14.7 | 12.9 | 12.4 |  |  |  |  |  |  | 
17 | AATTAAGT [8-mer AATTAAGT] | 12.7 | 10.8 | 12.1 | 10.7 | 10.9 | 11.8 | 11.3 | 11.3 | 10.2 | 14.7 | 13.5 | 12.6 | 12.1 |  |  |  |  |  |  | 
18 | CGCCCCGA [8-mer CGCCCCGA] | 10.1 | 10.1 | 10.1 | 10 | 10 | 10.2 |  |  |  |  |  |  |  | 9.37 | 9.41 | 9.31 | 9.55 | 9.39 | 9.35 | 9.33
19 | CCGGAGGA [8-mer CCGGAGGA] | 10.2 | 10.2 | 10.3 | 10.2 | 10.1 | 10.3 |  |  |  |  |  |  |  | 9.16 | 9.15 | 9.15 | 9.66 | 9.19 | 9.36 | 9.19
20 | CCGAGGGC [8-mer CCGAGGGC] | 10 | 9.96 | 10.1 | 9.95 | 10.1 | 10.2 |  |  |  | 9.9 | 9.69 |  |  |  |  |  |  |  |  | 
